{
  "source": "paper PMC12136788",
  "binders": {"B1": {"name": "chr8:103876086:103876087:-_ENSG00000155096_ENST00000347770|hu_mus|FALSE|FALSE (ssRNA)", "RNA": "GGGAGUUCUACAGUCCGACGAUCCAACGUGAGAUAACGGCCCAAAGAGUCGGGUAAAGCGUCUUCUCUUUUUCGGCGGAAUUUUUAAAGAGGGAUGUGGUUACCUUGAGCAGAAAUACCCAAGGCGGCCUGGGCCAUAGGCUGCAACAGAGGAUUGAGCAUCA"}, "B2": {"name": "chr10:33190432:33190433:-_ENSG00000150093_ENST00000302278|hu_mus|hu_hu_hu_mus_True|28_78 (ssRNA)", "RNA": "GGGAGUUCUACAGUCCGACGAUCUACAUUUUCCAAACCUGCAUGUGAAUAAAACCCUGGCAAUAUUGCCCCAAAACUACCCUACUGUGACUAAGAUGCUGCUGCUGUUGCAUUCAGGUUGCAAAAUCCGCCUGAGUAGGAUUCCAACAGAGGAUUGAGCAUCA"}, "B3": {"name": "chr4:76721835:76721836:+_ENSG00000138768_ENST00000264904|hu_mus|hu_hu_hu_mus_True|48_48 (ssRNA)", "RNA": "GGGAGUUCUACAGUCCGACGAUCGUUUGGCUGGGGUUUCUGAGACGCUCUGGAAUAUAACUCAUGUUUGCUAAUAAAUCCUAGUUUUCUAUGAAAUUUCUCUUUGCCAAUCCUCUUCUCUAUUAGUUGCUUUAGUUUCUCUUUCAACAGAGGAUUGAGCAUCA"}, "B4": {"name": "chr13:37614821:37614822:-_ENSG00000102710_ENST00000475892|hu_mus|FALSE|FALSE (ssRNA)", "RNA": "GGGAGUUCUACAGUCCGACGAUCACUUUGGUAACCAGGAGACUUCAUAUUACUGGACUGCCUAUAGUCACGUAUUUCUGCUAUCACACAUCCACAAUGAAAAAUAUUAACCUGUGAUUUUUCAAGGAGAUCCACCAAAAUAGGCAACAGAGGAUUGAGCAUCA"}, "B5": {"name": "chr2:179515052:179515053:+_ENSMUSG00000000305_ENSMUST00000000314|mus_hu|mus_mus_mus_hu_False|38_98 (ssRNA)", "RNA": "GGGAGUUCUACAGUCCGACGAUCGCUGUCCCAUGCAGUGACGGUAAACGCCACCUGCUCGGAGGGGACCUGCAGCUCCCGGGUGGCGAAGACUGUCCCAUCCGCCCCAACUUUGAAGUCCAUGCUGUUGGUCUCAUAUUGUGUCAACAGAGGAUUGAGCAUCA"}, "B6": {"name": "chr6:89793807:89793808:+_ENSG00000146278_ENST00000336032|hu_hu|motif|central (ssRNA)", "RNA": "GGGAGUUCUACAGUCCGACGAUCGCUUCCCAUCCAGUGACUAGGAGGCUUUGGAAGAACACUAGGAGAAGGUGGAUCACGGAACUUUGCCCCAGCAUAAUUUUCCUUUUGGCUCACUUCAGUUAGAAAUGCUGAUUUCUUCAACAACAGAGGAUUGAGCAUCA"}, "B7": {"name": "chr7:7679991:7679992:-_ENSG00000106399_ENST00000396682|hu_hu|hu_hu_hu_mus_False|1_48 (ssRNA)", "RNA": "GGGAGUUCUACAGUCCGACGAUCUGGGAUGAAUCUUUUCCAGCUUCCCCACGAAGCACACGGGCCGGUCGAUAUACUGUGGUAACAUGCCGGCGUUGACGCGCGCUUUGGGGAGCUGCAUUAUGUCCUCCAUGAUUAUGGUCCCAACAGAGGAUUGAGCAUCA"}, "B8": {"name": "150433044_150433978_734_3pUTR_ENSMUSG00000029657_ENSMUST00000074846|mouse|control|control (ssRNA)", "RNA": "GGGAGUUCUACAGUCCGACGAUCCAACAGCCGUCAUGUCAUUCAUGAGCCGCAAGCAGUUCAAGCCCACAAUCUGCGCAGCAUCCAGCACAGACCUUCGCUCAGCAUCUGUGAAGAAGGAUGGGACUGAGAUGACACAGUCUGCAACAGAGGAUUGAGCAUCA"}, "B9": {"name": "chr16:56974071:56974072:+_ENSG00000051108_ENST00000439977|hu_hu|FALSE|FALSE (ssRNA)", "RNA": "GGGAGUUCUACAGUCCGACGAUCCAUGAGGAAUCUGCUCAGGGAGGAGUAGAAGUAGAGGAUACUGAGAAAAACAGAAAAUGUAGCUGCUGAAUAGGUCCAAUCCAACCAAUCUCGAUUUAUUUCAUCAUCUUCUUCCACAAUCAACAGAGGAUUGAGCAUCA"}, "B10": {"name": "chr18:52893488:52893489:-_ENSG00000196628_ENST00000354452|hu_hu|hu_hu_hu_mus_True|98_98 (ssRNA)", "RNA": "GGGAGUUCUACAGUCCGACGAUCUAUUUAGACCAUUUCAAUGGAUUUAUGGCAUUUACUCAGUGCUGAUAGGUGGAAAAACUACUUCAACAGGGAUUUUUUUUUUCCUUAAUACAUGCCAAGAUUGUGUGGCUGUCAAAACAGCAACAGAGGAUUGAGCAUCA"}, "B11": {"name": "chr17:40142368:40142369:-_ENSG00000168259_ENST00000588814|hu_hu|FALSE|FALSE (ssRNA)", "RNA": "GGGAGUUCUACAGUCCGACGAUCAUUCGUAGAAUGUCACUAGCCACAGACUGUGCUUCUGGAUAACGACCCAGCAUUGCUAAACAUUCUGCCUUGAGGAUUUUGAAGCGAUGGCAGGCAGGGGCAAAUUCUAGGGCACGGUCCCAACAGAGGAUUGAGCAUCA"}, "B12": {"name": "216269352_216271054_3218_CDS_ENSG00000115414_ENST00000323926|human|control|control (ssRNA)", "RNA": "GGGAGUUCUACAGUCCGACGAUCCUGGAGGUUAGUGGGAGCAUCCAGUUUGGUUGUCUGUUGAGCAGUCAGAGGCUUGCUCUCCCUCCCAUGGCUCACUGCAAAGACUUUGAAGUAAUAGGUGACCCCAGGGGACAGCCCGGUCAACAGAGGAUUGAGCAUCA"}, "B13": {"name": "145510590_145512498_2390_CDS_ENSG00000133706_ENST00000545646|human|control|control (ssRNA)", "RNA": "GGGAGUUCUACAGUCCGACGAUCAAAAAACCCUGUUUUCAAAGCUUCUUUAAACAUCAUCUUUUCAUAGUUUUGAUCUGUUUUUAUAAUUCCUGCAUUCAAUUCACUGGCAAAAACUCUAUCAUUGAAAGUGCUGGCAGGACCCAACAGAGGAUUGAGCAUCA"}, "B14": {"name": "chr13:91842754:91842755:+_ENSMUSG00000003992_ENSMUST00000004094|mus_mus|motif|central (ssRNA)", "RNA": "GGGAGUUCUACAGUCCGACGAUCCCCAAAAUAUGUGAGUACUGCUGAUUUCAUUAUUAUGGGCUGAAGUAUGCAGAAAGCGGACCUCUGGCAAGCAGCAUAUACAUCAAGAGGACAUGAAUGGGCCAACAGCCGUAGAAUGCACAACAGAGGAUUGAGCAUCA"}, "B15": {"name": "chrX:12734859:12734860:+_ENSMUSG00000031010_ENSMUST00000089302|mus_hu|FALSE|FALSE (ssRNA)", "RNA": "GGGAGUUCUACAGUCCGACGAUCAUCACUGGCAGAGCCACGGACUACUUUCUUUGUGUGAAAUCCUGUAGUAAAGAGGAACCUAGCAGCAAGUUGAAUACUGAUCAUAGUGAUUUCUUCUGCUUCAGGCAACAGGUGAUCUUGCAACAGAGGAUUGAGCAUCA"}, "B16": {"name": "chr17:87832841:87832842:-_ENSMUSG00000036438_ENSMUST00000040440|perfect_dup|motif|central (ssRNA)", "RNA": "GGGAGUUCUACAGUCCGACGAUCUAUACAACUUGGAAUGGAUUUUGAGGCAAAUUGUGCCAUAAGCAGAUUUUAAGUGGCGGAACAAAGUUUAAAAAGCAAGUAACAAUAAAAGAAAAUGUUUCUGGUACAGGACCAGCAGUACAACAGAGGAUUGAGCAUCA"}, "B17": {"name": "42725189_42729127_464_CDS_ENSG00000120925_ENST00000527424|human|control|control (ssRNA)", "RNA": "GGGAGUUCUACAGUCCGACGAUCUUGGUGCAGGCAGAUGGGACAGUACAUGUCAGUGUAGAACUGCUGUCGAGUGGCAGCAGGUGCAUCCUGUUCUGUUUGAAGCUGUUCUCGAAGUACCCUUACUAGCUCCUGGUUUUCUGGCAACAGAGGAUUGAGCAUCA"}, "B18": {"name": "chr14:89307221:89307222:+_ENSG00000165533_ENST00000346301|hu_mus|hu_hu_hu_mus_False|58_68 (ssRNA)", "RNA": "GGGAGUUCUACAGUCCGACGAUCUCCUGUUUGGUUAGUGCCAGGGAGCUUCAAAGAUGUGCCAGGGCGUGGAACUUGAGCUAUAGCAUUUUCAUCCAGGAUCAUUUCAGCAAUUCCUUCCUGGUCCACAUCAAUUUCAUCUAUCAACAGAGGAUUGAGCAUCA"}, "B19": {"name": "chr5:162868235:162868236:+_ENSG00000113328_ENST00000340828|hu_hu|FALSE|FALSE (ssRNA)", "RNA": "GGGAGUUCUACAGUCCGACGAUCCCAACACACCUUCUCCAAUACAAUCUUUUCCAUUCUCAUCAAGUCUGAAACCGUAAACCUAUAUUGACUUAUUCGGAUCAAGUCAGUUGCCAAUGGGACAUUCCUUUCCUCUUCUAUUGACAACAGAGGAUUGAGCAUCA"}, "B20": {"name": "chr14:89338683:89338684:+_ENSG00000165533_ENST00000346301|hu_hu|hu_hu_hu_mus_False|38_58 (ssRNA)", "RNA": "GGGAGUUCUACAGUCCGACGAUCGUGGUUGUUGUGGACCAGGGCCAGCCUGAAGCAUUGGUGGGCCAAGUUUGUAUCUCCUAUUCCCACAGCUAUGUGUCCCAAGUUGUACCAGACAUCAGCUGCCUCUUCUUCAUUUUCAGCCAACAGAGGAUUGAGCAUCA"}, "B21": {"name": "11615646_11615766_1029_3pUTR_ENSMUSG00000031508_ENSMUST00000169782|mouse|control|control (ssRNA)", "RNA": "GGGAGUUCUACAGUCCGACGAUCGAACUCAGAAAUAGUAAGCAUACUGAUUCUUGCAACGACAAGGGGUUUGCAUUGCUGAAACAGUAUAUAUCUCUAUUUCUUUAGGUCCAACAGAACUACUCUCCUGUUGCUUGGUGUCCUCAACAGAGGAUUGAGCAUCA"}, "B22": {"name": "chr6:41757443:41757444:+_ENSG00000214736_ENST00000398881|hu_mus|hu_hu_hu_mus_False|88_108 (ssRNA)", "RNA": "GGGAGUUCUACAGUCCGACGAUCGAACUGUCUGCUGGCAACAUCUCGGAAUUCUGCGGGGGAUGGGGGGGCAGUGGGGGGGGGUUCAGGCAAGGAGAGGGAGUCAACUUCAGCUGCCACUCAGGUAGGAUCUUGUGGUCACAGCAACAGAGGAUUGAGCAUCA"}},
  "note": "The other results are listed elsewhere or left out.",
  "data": [
    {"molecular_target": "T1, UNK ZnF1-3 (human, UniProt Q9C0B0 31-174)", "T1 sequence": "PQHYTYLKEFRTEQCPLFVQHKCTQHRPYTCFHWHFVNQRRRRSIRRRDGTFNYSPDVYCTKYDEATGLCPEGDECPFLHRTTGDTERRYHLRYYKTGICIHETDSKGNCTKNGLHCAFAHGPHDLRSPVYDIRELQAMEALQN", "test": "nsRBNS (natural sequence RNA bind-n-seq); RBNS binding buffer (assumed for nsRBNS): 25 mM Tris pH 7.5, 150 mM KCl, 3 mM MgCl2, 0.01% Triton X-100, 500 ug/ml BSA, 20 U/ml SUPERase-In, 4 C; UNK is unkempt and MSI1 is Musashi-1; names of the RNAs are library labels; protein concentration not given here; high values mean tight binding", "units": {"binding signal": "enrichment R"}, "values": [
      {"binder": "B1", "binding signal": 0.946},
      {"binder": "B2", "binding signal": 1.34},
      {"binder": "B3", "binding signal": 0.57},
      {"binder": "B4", "binding signal": 1.11},
      {"binder": "B5", "binding signal": 0.848},
      {"binder": "B6", "binding signal": 1.11},
      {"binder": "B7", "binding signal": 0.342},
      {"binder": "B8", "binding signal": 1.41},
      {"binder": "B9", "binding signal": 1.69},
      {"binder": "B10", "binding signal": 1.08},
      {"binder": "B11", "binding signal": 1.17},
      {"binder": "B12", "binding signal": 1.68},
      {"binder": "B13", "binding signal": 0.848},
      {"binder": "B14", "binding signal": 1.6},
      {"binder": "B15", "binding signal": 1.16},
      {"binder": "B16", "binding signal": 1.53},
      {"binder": "B17", "binding signal": 0.739},
      {"binder": "B18", "binding signal": 0.86},
      {"binder": "B19", "binding signal": 0.878},
      {"binder": "B20", "binding signal": 0.762},
      {"binder": "B21", "binding signal": 0.505},
      {"binder": "B22", "binding signal": 0.948}
    ]}
  ]
}
